In all, about 420,000 compounds went through this assay and about 50,000 (12%) were called active. The shares of active, inactive and inconclusive entries below differ from those in the screen. The call rests on the fitted dose curve; in most records, active means well fitted inhibition curve with a large enough effect; inconclusive means small, poorly fitted or top-dose-only effect; inactive means flat fitted curve, though single readings scatter. No potency is given beside an inconclusive call; the fits are too rough.
experiment: qHTS for Inhibitors of human tyrosyl-DNA phosphodiesterase 1 (TDP1): qHTS in cells in presence of CPT; conditions: chicken DT40 Tdp1-/-;hTDP1 cells + 20 nM CPT, ATP luminescence, 48 h; activity change, negative = growth inhibition: at 46.2 µM (top of the series) unless noted; further: nearly all actives have a fitted effect of over 55% in size
In short: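 Cell growth measured by CellTiter-Glo luminescence after a minimum 48 h, 37 C compound exposure with 20 nM CPT in Tdp1-knockout DT40 cells stably expressing hTDP1, seeded 400/well; qHTS titration format.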
On the % scale 0 is the no-effect control and ±100 the full control effect; potency means the concentration at half of the fitted maximal effect; tags describe the fitted curve by direction and shape.

| SMILES | Potency | activity change, negative = growth inhibition |
| --- | --- | --- |
| CC(C)c1ccc(S(=O)(=O)NCc2nc3cccnc3n2Cc2ccc(F)cc2)cc1 | inconclusive [inhibitor, single point] |  |
| CCCCn1c(SCC(=O)Nc2ccc3c(c2)OCO3)nc2c1c(=O)n(C)c(=O)n2C | active: 16.4 µM |  |
| Cn1cnnc1SCCOc1ccc(Cl)cc1 | inactive |  |
| CC1=C(C(=O)Nc2cc(C)cc(C)c2)C2(CCCCC2)OC1=O | inconclusive [inhibitor, single point] |  |
| Cc1ccc(CN=Cc2[nH]c3ccc(Br)c(Cl)c3c2O)cc1 | inconclusive [inhibitor, single point] |  |
| O=C(Nc1ccc(F)c(F)c1)c1ccc(=O)n(Cc2ccc(F)cc2)c1 | inconclusive [inhibitor, single point] |  |
| COc1ccc(NC(=O)COCc2cc(-c3ccco3)on2)cc1Cl | inconclusive [inhibitor, single point] |  |
| CCc1ccc(N=Nc2ccc(O)c3[nH]cnc23)cc1 | inconclusive [inhibitor, single point] |  |
| COc1ccc(CCNC(=O)CCc2c(C)c3ccc(O)c(C)c3oc2=O)cc1 | inconclusive [inhibitor, single point] |  |
| C=C1C(=O)OC2C1CCC(C)C1C=CC(=O)C12C (centres undefined) | active: 3.26 µM |  |
| Oc1c(Br)cc(/C=N/NC(=S)NCC2CCCO2)cc1Br (centres undefined) | inconclusive [inhibitor, single point] |  |
| Cc1cccc(N2CCN(C(=O)CS(=O)(=O)Cc3nc(-c4ccccc4F)oc3C)CC2C)c1 (centres undefined) | inconclusive [inhibitor, single point] |  |
| COc1cc(OC)c(NC(=O)CCc2nc(C3=CCN(Cc4cccc(Cl)c4)CC3)no2)cc1Cl | active: 23.1 µM |  |
| NC(=S)Nc1cc2ccccc2c2ccccc12 | inconclusive [inhibitor, partial curve, poor fit] |  |
| Cc1c(CCC(=O)N[C@@H](CC(C)C)C(=O)O)c(=O)oc2c(C)c3oc4c(c3cc12)CCCC4 | inactive |  |
| COc1cccc(/C=N/NC(=O)c2c(C)nc3ccc(Cl)cn23)c1OC | active: 16.4 µM |  |
| Cc1cccc(OCC(=O)NC(Cc2ccccc2)C(=O)O)c1 (centres undefined) | inconclusive [inhibitor, single point] |  |
| COc1ccc(N2CCN(S(=O)(=O)CCNC(=O)C3CC3)CC2)cc1 | inactive |  |
| CCOC(=O)c1[nH]c2ccccc2c1N=CN(C)C | inactive |  |
| COc1cccc(C2C(=O)N(C3CCCCC3)CC(=O)N2CCc2ccc(OC)c(OC)c2)c1 (centres undefined) | inconclusive [inhibitor, single point] |  |
| Cc1ccsc1CN1CCC(C(=O)NCc2ccccc2Cl)CC1 | inconclusive [inhibitor, single point] |  |
| c1ccc(CCn2nnnc2CN2CCc3ccccc32)cc1 | inconclusive [inhibitor, single point] |  |

| SMILES | Potency | activity change, negative = growth inhibition |
| --- | --- | --- |
| CCCCOc1ccc(/C=C/C(=O)OCC(=O)N2CC(=O)Nc3ccccc32)cc1OCC | inconclusive [inhibitor, single point] |  |
| COc1ccc(/C=C2\SC(=S)N(CCC(=O)NC3=NCCS3)C2=O)cc1OC | inconclusive [inhibitor, single point] |  |
| COC(=O)C1CCN(C2=C(NS(=O)(=O)c3ccc(Cl)cc3)C(=O)c3ccccc3C2=O)CC1 | inconclusive [inhibitor, single point] |  |
| c1ccc(C[C@H]2CNCCN2CCCCC2CCCCC2)cc1 | inconclusive [inhibitor, partial curve, poor fit] |  |
| CC1(C(=O)NCc2ccc3c(c2)OCO3)CCN1CCc1ccccc1 (centres undefined) | inconclusive [inhibitor, single point] |  |
| CCOC(=O)C1CCN(C(=O)c2ccc(OCC(=O)Nc3cccc(C(F)(F)F)c3)cc2)CC1 | inconclusive [inhibitor, single point] |  |
| CCOC(=O)N1CCN(c2ccnc3cc(Cl)ccc23)CC1 | inconclusive [inhibitor, single point] |  |
| CCCNC(=O)C1(C)CCCN(Cc2cccc(Oc3ccccc3)c2)C1 (centres undefined) | inconclusive [inhibitor, single point] |  |
| Cc1ccsc1/C=N/n1c(-c2ccncc2)n[nH]c1=S |  | inconclusive: -11.4% [inhibitor] |
| CC(C)(C)[C@@H]1C=C(C(=O)N2CCOCC2)O[C@H](OCc2ccc(CO)cc2)C1 | inconclusive [inhibitor, partial curve] |  |
| COCCNC(=O)c1c[nH]c2ccc(S(=O)(=O)N3CCC4(CC3)OCCO4)cc2c1=O | inactive |  |
| Cc1ccc(NC(=O)c2oc3ccccc3c2NC(=O)C2CCCCC2)cc1 | inconclusive [inhibitor, single point] |  |
| CCOc1ccc(N(Cc2cc3ccc(C)cc3[nH]c2=O)S(C)(=O)=O)cc1 | inconclusive [inhibitor, single point] |  |
| CC(=O)C(C)n1cnc2scc(-c3ccc(C)cc3)c2c1=O (centres undefined) | inactive |  |
| Oc1cccc(/C=N/Nc2cc(N3CCCC3)nc(N3CCCC3)n2)c1 | inconclusive [inhibitor, single point] |  |
| Cc1ccccc1CNC(=O)CCCC(=O)n1nc(C)c2ccccc21 | inactive |  |
| O=C(N=Nc1c(O)[nH]c2ccccc12)c1cccs1 | inconclusive [inhibitor, single point] |  |
| CC(=O)NCc1ccc(S(=O)(=O)N2CCCN(C)CC2)cc1 | inconclusive [inhibitor, single point] |  |
| O=C1Nc2ccccc2-n2nnnc2C1N1CCN(c2ccc(C(F)(F)F)cn2)CC1 (centres undefined) | active: 16.4 µM |  |
| Cc1cc(C)c2c(=O)c3c(oc2c1)C(=O)N(Cc1ccco1)C3c1ccc(F)cc1 (centres undefined) | inactive |  |
| Cc1ccc(Cn2c(C(=O)O)cc3sccc32)cc1 | inactive |  |
| CC1CCN(c2nc3c(c(=O)n(C)c(=O)n3C)n2CCSc2nc3ccccc3s2)CC1 | active: 10.3 µM |  |
